Measured values from article PMC4336329 (PLoS ONE, 2015).
Screen size: about 310,000 compounds; about 14,000 (4.5%) showed an effect of 50% or more. Effects have a minus sign here. The list shows a part of the results.

Target: human ether-à-go-go-related gene (hERG) potassium channel (human, UniProt Q12809)
Experiment: primary screen, population patch clamp on CHO cells stably expressing hERG
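Further: peak tail current of the secondary pulse compared with the same well before compound.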

Sequence of human ether-à-go-go-related gene (hERG) potassium channel (Q12809 whole entry, looked up): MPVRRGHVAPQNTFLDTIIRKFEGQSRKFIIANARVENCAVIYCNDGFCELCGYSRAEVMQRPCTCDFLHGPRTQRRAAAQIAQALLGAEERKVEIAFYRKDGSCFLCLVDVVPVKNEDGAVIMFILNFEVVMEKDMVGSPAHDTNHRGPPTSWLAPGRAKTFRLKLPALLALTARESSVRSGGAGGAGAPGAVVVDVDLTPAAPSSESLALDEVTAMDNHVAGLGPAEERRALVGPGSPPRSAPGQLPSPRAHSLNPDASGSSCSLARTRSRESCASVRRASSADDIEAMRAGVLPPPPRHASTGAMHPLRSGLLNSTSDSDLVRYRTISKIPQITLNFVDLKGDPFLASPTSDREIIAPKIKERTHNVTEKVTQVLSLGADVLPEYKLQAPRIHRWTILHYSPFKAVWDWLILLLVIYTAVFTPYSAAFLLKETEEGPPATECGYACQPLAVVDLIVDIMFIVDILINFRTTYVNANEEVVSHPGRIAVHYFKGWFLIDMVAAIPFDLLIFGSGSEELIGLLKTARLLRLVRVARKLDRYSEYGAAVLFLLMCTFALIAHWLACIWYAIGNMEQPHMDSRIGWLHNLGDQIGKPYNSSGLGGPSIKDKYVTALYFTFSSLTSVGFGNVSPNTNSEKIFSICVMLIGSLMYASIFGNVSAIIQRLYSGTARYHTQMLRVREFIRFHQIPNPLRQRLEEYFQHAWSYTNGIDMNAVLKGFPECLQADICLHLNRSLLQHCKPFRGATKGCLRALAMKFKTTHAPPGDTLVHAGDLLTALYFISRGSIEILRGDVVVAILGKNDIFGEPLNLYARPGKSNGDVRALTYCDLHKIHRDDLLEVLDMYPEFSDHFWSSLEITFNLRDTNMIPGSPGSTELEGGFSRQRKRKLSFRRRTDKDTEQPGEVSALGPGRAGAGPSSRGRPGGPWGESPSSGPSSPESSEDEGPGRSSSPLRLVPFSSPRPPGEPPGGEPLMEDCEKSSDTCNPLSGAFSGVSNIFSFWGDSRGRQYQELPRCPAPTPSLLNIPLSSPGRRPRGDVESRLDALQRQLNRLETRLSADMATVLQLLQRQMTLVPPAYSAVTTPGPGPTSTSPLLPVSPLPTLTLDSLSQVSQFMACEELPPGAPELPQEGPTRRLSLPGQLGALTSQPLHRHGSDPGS

Compound	hERG current change (%, negative = inhibition) at 10uM [%]
COc1ccc(N(CC(=O)Nc2cccc(C)c2)S(=O)(=O)c2c(C)noc2C)cc1	5.38
Nc1cccc2c(=O)c3ccccc3[nH]c12	-2.11
Cc1nc([N+](=O)[O-])c(NCCCO)n1Cc1ccccc1	9.21
CC(NCC(=O)Nc1ccccc1C(=O)NC1CC1)c1ccc(S(N)(=O)=O)cc1.O=C(O)C(=O)O (stereo not drawn)	-12.6
CCN1/C(=C2/SC(=S)N(NC(C)=O)C2=O)Sc2ccc(Cl)cc21	-13.2
CC(C)c1ccc(/C=N/n2nnnc2Nc2ccccc2)cc1	12.4
Cc1ccccc1Cn1nc(C)c(NC(=O)/C=C/c2cnn(C)c2)c1C	19.8
CCCCNC(=O)[C@H]1N2C(=O)c3c(ccc(OC)c3OC)C2SC1(C)C (stereo partly drawn)	12.8
COc1ccc(-n2sc3ccc(F)cc3c2=O)cc1	11.9
CCCCn1c(N)c(N(CC(C)C)C(=O)COC(=O)C2(c3ccccc3)CC2)c(=O)[nH]c1=O	14
O=C(NCc1ccco1)c1nc2c(nnn2Cc2cccc(Cl)c2)c(=O)[nH]1	3.4
CCOc1ccc(Oc2ccc(S(=O)(=O)N3CCOCC3)cc2NC(=O)CCNC(C)=O)cc1	-5.91
Cc1ccc(OCC(=O)NNC(=O)C2CC(=O)N(c3ccc4c(c3)OCCO4)C2)cc1 (stereo not drawn)	-4.74
COc1ccc(/C=N/OC(=O)Nc2ccc(Cl)cc2)c(OC)c1	15.2
COCCN1CC(CNC(=O)c2cc(COc3ccccc3SC)on2)CC1=O (stereo not drawn)	-12.1
CCCN1C2CCCC1CC(NC(=O)Nc1cccc(C(C)=O)c1)C2 (stereo not drawn)	-5.62
CCOc1ncccc1C(=O)Nc1ccc2nc(C)sc2c1	10.3
Cc1ccc(OCc2ccc(C(=O)Nc3cc(C)on3)o2)c([N+](=O)[O-])c1	16.8
C[C@@H](OC(=O)N(C)Cc1ccccc1)[C@H]1O[C@]2(C)CCCC[C@H]1O2	12
CCN1CCN(c2ccc(S(=O)(=O)N3CCOCC3)cc2NC(=O)c2ccc(F)cc2Cl)CC1	-35.7
CC12CCC(=O)N1C(C(=O)NNC(=O)c1ccc(Br)cc1)CS2 (stereo not drawn)	-8.4
COc1cccc(CCc2nnc(N)s2)c1	16.7

Compound	hERG current change (%, negative = inhibition) at 10uM [%]
CC(NC(=O)c1ccc(Cl)cc1)C1CC2CCC1C2 (stereo not drawn)	2.08
COc1ccc(/C=C/C(=O)Nc2ccc(N3CCOCC3)cc2)cc1	10.1
COc1ccc(N2CCN(C(=O)CSc3nnc4c(C)cc5ccccc5n34)CC2)cc1	-8.51
C/C(CCc1ccco1)=N/NC(=O)CCC(=O)Nc1cccc(Cl)c1	8.56
Cc1ccc(NC(=O)c2cc(S(=O)(=O)N3CCOCC3)cn2C)cc1Cl	11.2
CC1=NC(C)(C)Cc2cc(C)c(C)cc21.Cl	-9.62
O=C(CN1C(=O)S/C(=C\c2ccccc2Cl)C1=O)NC1C=CS(=O)(=O)C1 (stereo not drawn)	11.7
COc1ccc(C2C(CN3CCOCC3)C(=O)N2c2ccccc2)cc1 (stereo not drawn)	9.52
COc1ccccc1NC(=O)COC(=O)c1ccccc1SCC(=O)N1CCCC1	20.2
CCCCCCCCCCCCCCCC(=O)NCCc1c[nH]c2ccccc12	7.6
O=C1CCCc2nc(N3CCN(C(c4ccccc4)c4ccccc4)CC3)ncc21	-7.92
CCc1ccccc1NC(=O)CC(=O)Nc1ccccc1CC	29.5
Cc1ccccc1Sc1ccc([N+](=O)[O-])cn1	3.63
COc1ccccc1NC(=O)c1oc2ccccc2c1NC(=O)c1cc(OC)c(OC)c(OC)c1	15.2
Oc1ccc(Br)cc1C=Nc1ccc(Cl)cc1	16.6
Cc1ccc[n+](-c2nc([O-])sc2C=O)c1	16.9
CCN1CCN(c2ccc([N+](=O)[O-])cc2C(=O)OC)CC1	-63.7
COC1(OC)N=C(N)C2(C#N)C(c3ccc(F)cc3)C12C#N (stereo not drawn)	5
O=C(Nc1nc2c(F)cccc2s1)c1ccco1	-3.85
O=C(Nc1nc(-c2cc3ccccc3oc2=O)cs1)c1ccc(Br)o1	3.03
O=S(=O)(Nc1ccc(Br)cc1)c1cccc2cccnc12	17.9
NS(=O)(=O)c1ccc(NC(=O)c2ccc(F)cc2F)c(NC(=O)c2ccc(F)cc2F)c1	4.83

Compound	hERG current change (%, negative = inhibition) at 10uM [%]
Cc1cc(C2(O)C(=O)Nc3ccccc32)ccc1F (stereo not drawn)	15.8
CCCCC(CC)C(=O)Nc1ccccc1C(=O)NC(C)C (stereo not drawn)	-11.6
CN(C)c1ccc(/C=C(\NC(=O)c2ccccc2)C(=O)NCc2cccnc2)cc1	-18.9
Cc1ccc(-n2c(SCn3nnc4ccccc4c3=O)nnc2-c2cccnc2)c(C)c1	-39.3
O=C(Nc1cccc(F)c1)C1CCN(S(=O)(=O)c2cccc3nonc23)CC1	-4.67
Nc1cc(N)nc(SCCN2CCCCC2)n1	3.07
COc1ccccc1C(C)Nc1nc(-c2cccnc2)nc2ccccc12 (stereo not drawn)	12.8
CC(Sc1nnc(-c2cccnc2)n1N)C(=O)N1CCOCC1 (stereo not drawn)	2.34
Cc1noc(C)c1C(=O)NNc1cc(Cl)ccc1Cl	1.13
CC1CCCC(NC(=O)COC(=O)c2ccccc2NC(=O)c2ccco2)C1C (stereo not drawn)	-3.75
COc1ccccc1-c1ccc(SCc2ccc(C)cc2)nn1	12.1
Cc1ccc(NC(=S)NC(=O)c2cncc(Br)c2)cc1Cl	-1.16
Cc1cccc(NC(=O)c2nnn(-c3cccc(C(F)(F)F)c3)c2N)c1	15.8
O=c1[nH]c2ccccc2nc1C(Cl)c1ccccc1 (stereo not drawn)	2.52
COC(=O)[C@@H]1CCCN1C(=O)CCc1nnc(C2CCCCC2)o1	6.94
COC(=O)c1sc(N)c(C(=O)OC)c1CSc1nnc(-c2ccccc2Cl)n1C	-24.5
CCOC(=O)c1c(NC(=O)C[n+]2ccc(Cc3ccccc3)cc2)sc(C)c1C.[Cl-]	-43.5
C/C(CC(=O)NC1CCCC1)=N\NC(=O)c1ccc([N+](=O)[O-])c(Cl)c1	5.66
Cc1cc(C)nc(SCC(=O)Nn2cnnc2)n1	18.9
Cc1cc(NC(=O)C2CC(c3ccc(F)cc3)=NO2)n(-c2ccccc2)n1 (stereo not drawn)	-11.1
COc1ccc(C(=O)C(C)[n+]2ccc(C)c3ccccc32)cc1[N+](=O)[O-].[Br-] (stereo not drawn)	4.94
CN1CCN(c2ccccc2NC(=O)c2ccc(N3CCOCC3)c([N+](=O)[O-])c2)CC1	-14.5

Compound	hERG current change (%, negative = inhibition) at 10uM [%]
Cc1ccc(C)n1-n1cnc2sc(-c3ccccc3)cc2c1=O	-9.99
O=C(CCn1c(=O)c2sccc2n(CC(=O)OCc2ccccc2)c1=O)NCc1ccco1	-50
CCCCNC(=O)c1c[nH]c2ccc(S(=O)(=O)Nc3ccc(OCC)cc3)cc2c1=O	10.3
O=C(c1ccco1)N1N=C(c2ccccc2)CC1c1ccc2nccnc2c1 (stereo not drawn)	-45
CN(C)c1ccc(S(=O)(=O)N2CCCCC2)cc1NC(=O)C1=COCCO1	-10.2
Cc1ccc(-n2nc(C)c3c2OC(N)=C(C#N)C3c2ccc(F)cc2)cc1 (stereo not drawn)	3.29
CC(C)c1ccc(S(=O)(=O)N2CCN(C(=O)CCNS(=O)(=O)c3ccccc3F)CC2)cc1	-12.9
CN(C)S(=O)(=O)c1cc(NC(=O)COC(=O)CCSc2ccc(Cl)cc2)ccc1Cl	2.72
COc1ccc(CNCCc2ccccc2F)c(OC)c1C.O=C(O)C(=O)O	-31.3
CC(C)N1CCc2c(sc(NC(=S)NC(=O)c3ccccc3)c2C#N)C1	16.9
COCCCNC(=O)c1ccccc1-c1cc(C)no1	13.9
CCCCc1cc(=O)oc2cc(OC3CCCCC3=O)ccc12 (stereo not drawn)	21.7
Cl.c1csc(CNCCCN2CCOCC2)c1	15.6
COc1ccccc1-n1cnc2cc(NCc3ccco3)ccc21	-20.7
COc1ccc(C(=O)COC(=O)Cn2cnc3c2c(=O)n(C)c(=O)n3C)c(OC)c1	3.76
OCC[C@H]1C[C@@H](O)[C@H](O)[C@@]2(CCCO2)O1	12.5
COc1ccc(-n2c(SCC(=O)Nc3ccccc3)nnc2-c2ccoc2C)cc1	-71.8
CCN(CC)C(=O)CSc1nsc(SCC(=O)N(CC)CC)c1C#N	8.73
Cc1cc(NCc2ccccn2)n2nc(C)c(-c3ccc(Cl)cc3)c2n1	14.2
CSc1ccc(S(=O)(=O)N2CCC(C(=O)NCc3ccncc3)CC2)cc1	-30.5
COc1ccc(C2=NOC(C(=O)N3CCCc4ccccc43)C2)cc1 (stereo not drawn)	-15.9
